Results: the supplement of paper PMC3334620
Whole data set: some 33,000 sequences, median “E-score (-0.5 to 0.5)” near -0.053, cut for the highest 2% near 0.37. The list shows a part of the results.

target: Hap1 (UniProt P0CE41); assay: PBM E-score (8-mer binding enrichment) (E-score (-0.5 to 0.5)); higher = stronger / more preferred TF binding; most listed sequences are background and not binding sites; details: protein concentration: 200 nM; construct: GST-DNA-binding domain
How it was run: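 Bound GST-tagged yeast transcription factors, applied at about 100-200 nM to double-stranded universal all-10-mer Agilent arrays, were detected with fluorescent anti-GST. Scans were normalised with masliner. A modified Wilcoxon-Mann-Whitney statistic, the E-score, was assigned to each ungapped eight-base word pooled with its reverse complement by the Universal PBM Analysis Suite.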

UniProt P0CE41, sequence (P0CE41 whole entry, the tested form may be a part): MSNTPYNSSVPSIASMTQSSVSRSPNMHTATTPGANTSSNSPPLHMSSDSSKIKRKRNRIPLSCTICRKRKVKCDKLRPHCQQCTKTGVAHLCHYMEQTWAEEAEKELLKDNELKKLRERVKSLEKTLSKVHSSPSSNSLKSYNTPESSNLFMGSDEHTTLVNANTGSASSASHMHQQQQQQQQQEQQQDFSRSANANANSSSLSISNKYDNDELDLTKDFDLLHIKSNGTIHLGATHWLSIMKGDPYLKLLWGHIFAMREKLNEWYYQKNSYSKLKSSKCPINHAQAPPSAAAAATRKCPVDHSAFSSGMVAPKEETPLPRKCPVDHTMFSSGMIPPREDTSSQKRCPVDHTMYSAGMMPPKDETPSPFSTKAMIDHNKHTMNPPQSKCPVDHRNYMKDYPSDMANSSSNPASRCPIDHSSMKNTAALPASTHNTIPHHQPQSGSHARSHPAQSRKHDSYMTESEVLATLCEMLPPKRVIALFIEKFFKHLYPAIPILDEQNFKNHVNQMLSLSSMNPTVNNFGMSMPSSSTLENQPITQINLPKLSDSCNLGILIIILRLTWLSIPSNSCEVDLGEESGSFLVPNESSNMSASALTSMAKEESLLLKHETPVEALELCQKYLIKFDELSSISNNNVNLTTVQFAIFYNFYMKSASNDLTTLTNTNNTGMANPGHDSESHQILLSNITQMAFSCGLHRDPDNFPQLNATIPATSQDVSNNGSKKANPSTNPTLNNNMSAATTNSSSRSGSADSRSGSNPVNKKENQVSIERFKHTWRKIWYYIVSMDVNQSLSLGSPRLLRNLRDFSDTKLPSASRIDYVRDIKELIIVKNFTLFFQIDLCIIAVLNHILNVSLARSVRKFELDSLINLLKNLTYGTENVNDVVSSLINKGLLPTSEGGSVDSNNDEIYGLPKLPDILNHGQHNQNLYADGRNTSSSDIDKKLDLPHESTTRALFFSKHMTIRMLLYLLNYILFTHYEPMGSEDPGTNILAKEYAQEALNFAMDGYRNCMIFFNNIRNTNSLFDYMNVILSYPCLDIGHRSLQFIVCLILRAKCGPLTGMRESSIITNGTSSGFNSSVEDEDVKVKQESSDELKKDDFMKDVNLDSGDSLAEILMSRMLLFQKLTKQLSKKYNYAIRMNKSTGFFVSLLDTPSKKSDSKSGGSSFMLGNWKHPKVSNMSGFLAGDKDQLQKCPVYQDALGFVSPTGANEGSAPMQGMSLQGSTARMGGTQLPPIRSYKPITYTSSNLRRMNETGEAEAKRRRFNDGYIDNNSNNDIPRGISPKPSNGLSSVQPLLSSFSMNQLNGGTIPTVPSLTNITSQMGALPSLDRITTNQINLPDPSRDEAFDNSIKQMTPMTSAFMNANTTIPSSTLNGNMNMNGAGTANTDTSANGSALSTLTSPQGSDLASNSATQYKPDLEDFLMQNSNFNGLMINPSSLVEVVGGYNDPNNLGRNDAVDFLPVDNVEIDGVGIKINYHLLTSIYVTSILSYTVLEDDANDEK

| Sequence | PBM E-score |
| --- | --- |
| CCTGTGCC | -0.159 |
| GATAGCGA | 0.0711 |
| ATACCGCA | 0.284 |
| CTGGTCCA | -0.0613 |
| CCAGCTAG | -0.36 |
| AGAAGAAG | -0.0942 |
| CTCAGGCA | 0.128 |
| CAGTCTCG | -0.0711 |
| CTCTACTA | -0.265 |
| ATACAGGG | 0.0187 |
| ATACGCGA | -0.0162 |
| AATACGAT | 0.0467 |
| CCGATGCA | 0.242 |
| CCGGATCA | 0.364 |
| GTTGGCGA | 0.0633 |
| ACACTTAT | 0.0354 |
| ACCGTACT | 0.0174 |
| AATCCTCT | -0.222 |
| CACTTCAG | -0.0738 |
| ACCGTTGA | 0.0992 |
| CTGACCCC | 0.038 |
| CGGCTTGC | 0.184 |
| AACACAGC | -0.037 |
| ATCTATAC | -0.0485 |
| CCACTCCC | 0.119 |

| Sequence | PBM E-score |
| --- | --- |
| CAGGCGGC | 0.114 |
| CATATCGA | 0.0363 |
| GGTTGGGA | -0.07 |
| CTCAACAC | -0.0682 |
| ACTTGTGA | -0.264 |
| ATTCGAGA | -0.171 |
| AAGGTATG | -0.0845 |
| GGTAGTAC | -0.0713 |
| GACATCAA | 0.102 |
| CTCCCGCA | 0.22 |
| ACCCACCC | 0.184 |
| AGAAAGCA | -0.127 |
| TGAAAACA | -0.167 |
| AACACAAG | -0.246 |
| ACTCCGTC | 0.3 |
| GCCCGAAC | 0.298 |
| AGCTAGCC | -0.192 |
| CCTCAACC | -0.123 |
| CTCTCGGC | 0.318 |
| AAGTGGGA | -0.0321 |
| GGAAGGAA | 0.0733 |
| AGTCCCTC | -0.175 |
| CTTGCAGC | -0.137 |
| AACGTAAG | -0.18 |
| GATTCTGA | -0.0232 |

| Sequence | PBM E-score |
| --- | --- |
| CAATACTG | -0.214 |
| ATCTTTAC | -0.0607 |
| ATTAGATC | 0.0167 |
| GCAAGCTA | -0.291 |
| CACCTACA | -0.269 |
| AACTGACT | -0.0432 |
| GCGTACAC | -0.114 |
| ATCGGATG | 0.346 |
| TTAGCTAA | -0.192 |
| ACTACAAA | -0.114 |
| ACGATCCG | 0.302 |
| ATTGCGTG | 0.0241 |
| CGGTCCGC | 0.317 |
| ACCACAAG | -0.0645 |
| ATGTCGAG | -0.205 |
| GGTCGAGA | -0.039 |
| CCCAAAAA | -0.156 |
| TAATCGTA | -0.0705 |
| TCCTGAGA | -0.126 |
| AGAGGATC | -0.163 |
| AAGTAATA | -0.0959 |
| CCAAGAAC | -0.149 |
| AGTTCAAT | -0.203 |
| CCGCCTAC | 0.0932 |
| ACCTAATG | -0.268 |

| Sequence | PBM E-score |
| --- | --- |
| GTCCACAA | -0.0973 |
| GCACACAC | -0.13 |
| TCAACGAA | -0.102 |
| ATGGCCAG | -0.165 |
| AGCGAAAA | -0.0603 |
| GTATGCCA | -0.0352 |
| CTTGTTTA | 0.0183 |
| ACTTTCCC | 0.0756 |
| AACGCGGT | 0.171 |
| CAATCTTA | -0.113 |
| ACCAGCGG | 0.117 |
| ACCTTGCA | -0.202 |
| CCGTGATC | 0.132 |
| AGGTAACT | -0.0616 |
| CCTCAAGA | -0.125 |
| AAAGAGAA | -0.0755 |
| ACCAACAA | 0.018 |
| CCCTTTCC | -0.0185 |
| ACCTACTC | -0.0798 |
| AGCCGGCC | 0.354 |
| AAGTCAGA | -0.116 |
| CACGGTCA | -0.0339 |
| AAGCTTGA | -0.0988 |
| GCCCAAAC | -0.0175 |
| AGTATGTC | -0.204 |

| Sequence | PBM E-score |
| --- | --- |
| GAAATATC | 0.274 |
| TTGAAAAA | -0.215 |
| AAAGTCTT | -0.103 |
| ACTCTACT | -0.225 |
| ACGACGAA | -0.00114 |
| AGAGAAGA | -0.129 |
| CCCCCAGA | -0.277 |
| CACCCAAC | 0.0332 |
| ATTGCGTC | 0.173 |
| AACTTATG | -0.161 |
| CGTAATTC | 0.177 |
| ATAAGCTA | -0.17 |
| CGCCAGTC | -0.0945 |
| ACTTGCAG | -0.214 |
| CTTAACCC | 0.217 |
| ATATCGGA | 0.439 |
| CAGCCTGG | -0.194 |
| TACCCGTA | -0.00463 |
| CTCCTACC | -0.126 |
| AGACTGTG | -0.326 |
| ATATCCGC | 0.387 |
| AGTTGTTC | -0.108 |
| CAAAAAGG | -0.282 |
| CTAATGTC | 0.0163 |
| GTACGGAA | 0.28 |

| Sequence | PBM E-score |
| --- | --- |
| AAATGGAC | 0.123 |
| AGCAGTTC | -0.148 |
| TCAGGTAA | -0.189 |
| CGTTATAA | 0.188 |
| TACGGGGA | 0.273 |
| ATCAGCCA | -0.0937 |
| AGGCCATC | -0.137 |
| AAAAGGGT | -0.0482 |
| TCGGATAA | 0.374 |
| TCTTATAA | 0.0456 |
| ATCGCCGA | 0.445 |
| AGTCCCCA | -0.319 |
| CGCGTAAC | 0.079 |
| TCACTCCA | -0.111 |
| CAGCGCTC | -0.0822 |
| ATTAAAGC | 0.0221 |
| CGGTCAGA | 0.289 |
| CTTCGCGA | 0.144 |
| CGTTATCC | 0.28 |
| CAACTCTG | -0.136 |
| AACAGACC | -0.0959 |
| CTCGGATC | 0.383 |
| CCTGACCG | 0.181 |
| AAAGATTT | 0.00922 |
| CATTCGCC | 0.106 |

| Sequence | PBM E-score |
| --- | --- |
| CCGGTGCC | 0.308 |
| ACCTAGCC | 0.105 |
| AGGCTGTG | -0.019 |
| ATGCCATC | -0.0678 |
| AACCCGGA | 0.371 |
| ACGCGGTA | 0.184 |
| GTTCAGTA | -0.211 |
| GCATATAC | -0.00768 |
| GTATAGCA | -0.0474 |
| CCTTCCAA | -0.209 |
| CATAGGCG | -0.196 |
| TACACCTA | -0.205 |
| GGGCAAAA | 0.22 |
| GCTAGAGC | -0.0726 |
| GCAGGGAC | -0.274 |
| GAACGCTA | -0.166 |
| ACGGGCAT | 0.127 |
| CTCCATTC | -0.15 |
| CACAGTAC | -0.224 |
| AAATCATT | -0.136 |
| CTACGGTC | 0.0364 |
| CCCTTTTC | -0.0629 |
